For 104 sequences, amyloid nucleation score results are on record in the supplement of paper PMC12067230.

Single values of this set are uncertain.
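Also: [psi-pin-] Saccharomyces cerevisiae expressing SupN fusions, induced by 100 µM Cu2SO4, selected 7 d at 30 °C without adenine and uracil, scored by deep sequencing of output versus input.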

The nature of one data set: amyloid nucleation score relative to library mode (yeast Sup35 reporter selection) (log enrichment difference); higher = more amyloid nucleation; sequences are the first 22 residues of the Bri2 peptide extended by up to 12 random residues. As to conditions: random library (experiment): 1;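 active = nucleation score significantly above 0 at FDR 0.05; inactive = not significantly above 0 or absent from output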.
Sequence EASNCFAIRHFENKFAVETLICYDITLCRVSGNG registered an amyloid nucleation score of 1.38.
In turn, EASNCFAIRHFENKFAVETLICYDKYRQHPSGSC had an amyloid nucleation score of 2.39.
The same measure, in the same setting: for EASNCFAIRHFENKFAVETLICYDLLRAL the value was “inactive”; for EASNCFAIRHFENKFAVETLICYDMLR, “inactive”; for EASNCFAIRHFENKFAVETLICYDRGTQGILVR, “inactive”.
For the sequence EASNCFAIRHFENKFAVETLICYDRHVLSRLTLA, the amyloid nucleation score result is “inactive”.
As to EASNCFAIRHFENKFAVETLICYDSRSGPGWLLR, the amyloid nucleation score turned out to be 4.7.
Consider EASNCFAIRHFENKFAVETLICYDVDGQDRYFCG, for which the amyloid nucleation score entry is “inactive”.
The same measure, in the same setting: in the case of EASNCFAIRHFENKFAVETLICYE it was 1.56; in that of EASNCFAIRHFENKFAVETLICYEACP, “inactive”.
Consider EASNCFAIRHFENKFAVETLICYEGSSPG, for which the amyloid nucleation score result was “inactive”.
Take EASNCFAIRHFENKFAVETLICYEGVAQSVRESG: the amyloid nucleation score result is “inactive”.
Consider EASNCFAIRHFENKFAVETLICYELWAKGTWLGV, for which the amyloid nucleation score entry was “inactive”.
For the sequence EASNCFAIRHFENKFAVETLICYEMGWVMTVWQW, the amyloid nucleation score came out at 1.53.
The same measure, in the same setting: for EASNCFAIRHFENKFAVETLICYEQTCYC the value was “inactive”; for EASNCFAIRHFENKFAVETLICYERAMPNWGREL, 1.57; for EASNCFAIRHFENKFAVETLICYERTEWTRGSVV, “inactive”.
EASNCFAIRHFENKFAVETLICYEWSLR: the amyloid nucleation score entry is “inactive”.
The same measure, in the same setting: in the case of EASNCFAIRHFENKFAVETLICYEWSVELSVW it was 0.864; in that of EASNCFAIRHFENKFAVETLICYF, 8.28; in that of EASNCFAIRHFENKFAVETLICYFDLHN, 7.99.
EASNCFAIRHFENKFAVETLICYFGL: the amyloid nucleation score came to 8.11.
Same read-out and setting: for EASNCFAIRHFENKFAVETLICYFHMDACSYFLD the value was “inactive”; for EASNCFAIRHFENKFAVETLICYFILWMVWARDP, “inactive”.
With EASNCFAIRHFENKFAVETLICYFLC, the amyloid nucleation score amounted to 6.99.
Still for that read-out and setting: in the case of EASNCFAIRHFENKFAVETLICYFLDLR it was “inactive”; in that of EASNCFAIRHFENKFAVETLICYFQRRWTIEV, “inactive”.
In the case of EASNCFAIRHFENKFAVETLICYFVDRGTRRLGW, the amyloid nucleation score worked out at 6.24.
Same read-out and setting: for EASNCFAIRHFENKFAVETLICYFVLVELGVGCG the value was 5.59; for EASNCFAIRHFENKFAVETLICYFVRKSCLSSCL, “inactive”; for EASNCFAIRHFENKFAVETLICYG, “inactive”.
EASNCFAIRHFENKFAVETLICYGADDGLLCPRW yielded an amyloid nucleation score of 1.96.
For EASNCFAIRHFENKFAVETLICYGCTVLRLHRYL, the amyloid nucleation score was -0.12.
Turning to EASNCFAIRHFENKFAVETLICYGESRYACRAKV, the amyloid nucleation score entry was “inactive”.
On the same count and under the same terms, in the case of EASNCFAIRHFENKFAVETLICYGFCSEGNMSSP it was 8.17; in that of EASNCFAIRHFENKFAVETLICYGFPKATHHDVW, 2.71.
Turning to EASNCFAIRHFENKFAVETLICYGGMRNSSKVRC, the amyloid nucleation score entry is “inactive”.
On to EASNCFAIRHFENKFAVETLICYGIYNGFLWFCR, for which the amyloid nucleation score result is “inactive”.
On to EASNCFAIRHFENKFAVETLICYGKFKCVLLTCR, for which the amyloid nucleation score result is “inactive”.
Take EASNCFAIRHFENKFAVETLICYGLTLQDTKLHL: the amyloid nucleation score stood at 5.36.
On to EASNCFAIRHFENKFAVETLICYGMWDWSLMSNL, for which the amyloid nucleation score entry was “inactive”.

The data set is the same for the next values; noted with them: random library (experiment): 2.
Take EASNCFAIRHFENKFAVETLICYDIPAVLCSA: the amyloid nucleation score result is “inactive”.
EASNCFAIRHFENKFAVETLICYDKYKHLALSNC: the amyloid nucleation score turned out to be 0.
Still for that read-out and setting: for EASNCFAIRHFENKFAVETLICYDMRYSFLRMFG the value was “inactive”.
As for EASNCFAIRHFENKFAVETLICYDNFIR, the amyloid nucleation score is 0.416.
For EASNCFAIRHFENKFAVETLICYDNVP, the amyloid nucleation score result was “inactive”.
On to EASNCFAIRHFENKFAVETLICYDPMIE, for which the amyloid nucleation score entry was “inactive”.
Sequence EASNCFAIRHFENKFAVETLICYDPYYSSGTS came in with an amyloid nucleation score of 1.58.
Consider EASNCFAIRHFENKFAVETLICYDSAFLRRTPPT, for which the amyloid nucleation score stood at 4.49.
Sequence EASNCFAIRHFENKFAVETLICYDSHRGVLRYKS gave an amyloid nucleation score of 2.46.
EASNCFAIRHFENKFAVETLICYDSVRMRMLSGV registered an amyloid nucleation score of 3.52.
For EASNCFAIRHFENKFAVETLICYDVELVSLIRYL, the amyloid nucleation score result is “inactive”.
With EASNCFAIRHFENKFAVETLICYDVML, the amyloid nucleation score was 3.48.
Still for that read-out and setting: in the case of EASNCFAIRHFENKFAVETLICYDVRLCLYCSRW it was 4.55; in that of EASNCFAIRHFENKFAVETLICYDVWLKEVSSRQ, 2.22; in that of EASNCFAIRHFENKFAVETLICYDWLVFEDMIFR, “inactive”.
With EASNCFAIRHFENKFAVETLICYEACL, the amyloid nucleation score is 1.07.
With EASNCFAIRHFENKFAVETLICYECPQYPSLSAK, the amyloid nucleation score result was “inactive”.
With EASNCFAIRHFENKFAVETLICYEGNQFPVSVRG, the amyloid nucleation score result is “inactive”.
Take EASNCFAIRHFENKFAVETLICYELTSMLDSTSW: the amyloid nucleation score entry was “inactive”.
In turn, EASNCFAIRHFENKFAVETLICYFARIGSIYVLL returned an amyloid nucleation score of -0.482.
Same read-out and setting: for EASNCFAIRHFENKFAVETLICYFATPKHDCQSE the value was 7.07; for EASNCFAIRHFENKFAVETLICYFAYVWGGYRGL, “inactive”; for EASNCFAIRHFENKFAVETLICYFCR, 7.25.
With EASNCFAIRHFENKFAVETLICYFGMRCVMSGIT, the amyloid nucleation score result was “inactive”.
Consider EASNCFAIRHFENKFAVETLICYFGYANIVRYEN, for which the amyloid nucleation score amounted to 0.673.
Sequence EASNCFAIRHFENKFAVETLICYFHWDLLNVCGK registered an amyloid nucleation score of 3.74.
In turn, EASNCFAIRHFENKFAVETLICYFKGSVNASLSF returned an amyloid nucleation score of 5.29.
As for EASNCFAIRHFENKFAVETLICYFKT, the amyloid nucleation score entry was “inactive”.
On to EASNCFAIRHFENKFAVETLICYFLVIHFSCFKD, for which the amyloid nucleation score result was “inactive”.
Consider EASNCFAIRHFENKFAVETLICYFLYFYVDGWCA, for which the amyloid nucleation score result is “inactive”.
With EASNCFAIRHFENKFAVETLICYFMWMYLTNRGT, the amyloid nucleation score result is “inactive”.
For the sequence EASNCFAIRHFENKFAVETLICYFQRSGIYYYGT, the amyloid nucleation score result is “inactive”.
With EASNCFAIRHFENKFAVETLICYFRMEIMRIVYW, the amyloid nucleation score entry is “inactive”.
Still for that read-out and setting: for EASNCFAIRHFENKFAVETLICYFSIFV the value was 1.53; for EASNCFAIRHFENKFAVETLICYFSSCSYGVAAC, “inactive”.
Sequence EASNCFAIRHFENKFAVETLICYFSVEGSQFLLM registered an amyloid nucleation score of -0.0198.
As for EASNCFAIRHFENKFAVETLICYFYRH, the amyloid nucleation score entry is “inactive”.
EASNCFAIRHFENKFAVETLICYGDVYTFLLLMG had an amyloid nucleation score of 4.25.
EASNCFAIRHFENKFAVETLICYGDYFYPSFWFV displayed an amyloid nucleation score of 6.04.
Take EASNCFAIRHFENKFAVETLICYGFKSLSKFCFF: the amyloid nucleation score result was “inactive”.
EASNCFAIRHFENKFAVETLICYGLGVGSCVCIL displayed an amyloid nucleation score of 6.25.
Still for that read-out and setting: for EASNCFAIRHFENKFAVETLICYGMYNFLIVYFP the value was “inactive”.
On to EASNCFAIRHFENKFAVETLICYGQIYDESRWWA, for which the amyloid nucleation score amounted to 8.33.

The data set is the same for the next values; noted with them: random library (experiment): 3.
On to EASNCFAIRHFENKFAVETLICYDLLCEQHNGAC, for which the amyloid nucleation score entry was “inactive”.
Regarding EASNCFAIRHFENKFAVETLICYDQERRAHLLSG, the amyloid nucleation score result is “inactive”.
As to EASNCFAIRHFENKFAVETLICYDYRVVFVGEMV, the amyloid nucleation score result was “inactive”.
As to EASNCFAIRHFENKFAVETLICYEA, the amyloid nucleation score entry was “inactive”.
Sequence EASNCFAIRHFENKFAVETLICYEC showed an amyloid nucleation score of 3.9.
EASNCFAIRHFENKFAVETLICYEQFCI: the amyloid nucleation score entry is “inactive”.
For the sequence EASNCFAIRHFENKFAVETLICYETSSCGTKYCF, the amyloid nucleation score worked out at 1.15.
Regarding EASNCFAIRHFENKFAVETLICYFDWKVFSVVRG, the amyloid nucleation score entry was “inactive”.
The sequence EASNCFAIRHFENKFAVETLICYFEIYFIEASFG had an amyloid nucleation score of 0.412.
As for EASNCFAIRHFENKFAVETLICYFFPCSRMVCIR, the amyloid nucleation score result is “inactive”.
EASNCFAIRHFENKFAVETLICYFRTPGDFGINA gave an amyloid nucleation score of 1.69.
In the case of EASNCFAIRHFENKFAVETLICYFSKWNLNAY, the amyloid nucleation score entry was “inactive”.
Turning to EASNCFAIRHFENKFAVETLICYFSQ, the amyloid nucleation score came to 8.17.
Same read-out and setting: in the case of EASNCFAIRHFENKFAVETLICYFVSPCCSSFVL it was 6.47; in that of EASNCFAIRHFENKFAVETLICYFVTFCYKVRAR, “inactive”; in that of EASNCFAIRHFENKFAVETLICYGELVHGLKDRA, 5.65.
As for EASNCFAIRHFENKFAVETLICYGFFVA, the amyloid nucleation score amounted to 6.28.
Consider EASNCFAIRHFENKFAVETLICYGFRSSVCCV, for which the amyloid nucleation score is -0.281.
For EASNCFAIRHFENKFAVETLICYGFVLKFDAWSV, the amyloid nucleation score entry is “inactive”.
In the case of EASNCFAIRHFENKFAVETLICYGPYSVTAKAGA, the amyloid nucleation score result was “inactive”.
